Molecules are shown by their SMILES. Entries after “also recorded” stand apart in the source; their conditions may differ. Records with an inconclusive call do not appear. Unless noted, calls come from the whole dose curve; as a rule, active = well fitted curve in the direction sought with a large enough effect in the repeat runs; inconclusive = weak or mixed curves; inactive = no such curve, though single readings can be large; an effect the other way counts as inactive or inconclusive. Not every entry of the source has a single result; some have several. They are shown here; other results are not. There may be further records. The values listed for one entry are repeated measurements across runs, samples, wells, individuals or studies. What stands in brackets tells the records apart. A, B and so on number the origins entry by entry. Some structures have more than one record in an assay (separate samples or runs), and their calls can disagree.

Assay [1] can be described thus: A CellTox Green Cytotoxicity Assay to monitor cytotoxicity in HEK293 cells - 24 hour (AID 1224875). For activity change: series mostly up to about 77 µM. Note: nearly all actives have a fitted effect of over 45% in size. An outline of the steps: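 Fluorescence from a DNA-binding dye excluded by viable cells was measured repeatedly in the same HEK293 wells (600 cells/well) during continuous compound exposure at 37 C. Each assay gives one read point: 0, 8, 16, 24, 32 or 40 h.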
Assay [2] can be described thus: qHTS assay to identify small molecule agonists of the constitutive androstane receptor (CAR) signaling pathway - cell viability counter screen (AID 1224836). For viability change, negative = cytotoxic: series mostly up to about 92 µM. Note: nearly all actives have a fitted effect of over 45% in size. An outline of the steps:
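Multiplexed viability check: HepG2-CYP2B6-hCAR cells, 15-point compound dosing, 0.75 uM PK11195 final, 23 h at 37 C, CellTiter-Fluor fluorescence.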
A general note: In qHTS, concentration-response curves come from the screen itself.

The nature of assay [3]: qHTS assay to identify small molecule antagonists of the constitutive androstane receptor (CAR) signaling pathway - cell viability counter screen (AID 1224837). For activity change, negative = cytotoxicity: series mostly up to about 92 µM. Note: nearly all actives have a fitted effect of over 45% in size. An outline of the steps: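 Cytotoxicity counter-screen: CellTiter-Fluor fluorescence after 23 h compound exposure (15-point qHTS) in double-stable HepG2-CYP2B6-hCAR cells, with 50 nM CITCO added.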
Assay [4] can be described thus: qHTS assay to identify small molecule antagonists of the estrogen receptor alpha (ER-alpha) signaling pathway using the BG1 cell line in the presence of 0.1 nM 17-beta-estradiol - cell viability counter screen (AID 1259241). Note: nearly all actives have a fitted effect of over 40% in size. The essentials:
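Measures cytotoxicity alongside the ER-alpha antagonist readout: VM7Luc4E2 cells, charcoal-stripped serum, 0.1 nM 17beta-estradiol final, 22 hr compound incubation at 37C, CellTiter-Fluor fluorescence.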

The nature of assay [5]: qHTS assay to identify small molecule antagonists of the progesterone receptor (PR) signaling pathway - cell viability counter screen (AID 1346798). For activity change, negative = cytotoxicity: series mostly up to about 92 µM. Note: nearly all actives have a fitted effect of over 50% in size. An outline of the steps: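 ATP content as viability readout: CellTiter-Glo luminescence, 30 min room temperature, in PR-UAS-bla HEK293T cells after 16 hr compound/R5020 treatment at 37C and 5% CO2.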
A short description of assay [6]: qHTS assay to identify small molecule antagonists of the TGF-beta/Smad signaling pathway - cell viability counter screen (AID 1346824). Note: nearly all actives have a fitted effect of over 50% in size. The essentials:
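SBE-bla HEK 293T cells were plated overnight at 37 C, then given compounds in DMSO plus TGF-beta1 (added as 0.25 ng/mL solution) for 5 hr. After the bla read, CellTiter-Glo was added to the same wells and luminescence read after 30 min at room temperature.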

Assay [7] in a line: qHTS assay for small molecules that induce genotoxicity in human embryonic kidney cells expressing luciferase-tagged ATAD5 - cell viability (AID 651634; calls by dose curve; note: nearly all actives have a fitted effect of over 25% in size). The source says:
National Center for Advancing Translational Sciences [NCATS]
NIH Chemical Genomics Center [NCGC]
U.S. Environmental Protection Agency [EPA]
National Institutes of Environmental Health Sciences [NIEHS]
National Toxicology Program [NTP]
U.S. Food and Drug Administration [FDA]
Enhanced Level of Genome Instability Gene 1 (ELG1; human ATAD5) protein levels increase in response to various types of DNA damage. Using a luciferase reporter-gene tagged with ElG1, a cell-based assay [developed by Kyungjae Myung, NHGRI, NIH] was used to measure the induction of ATAD5 in human embryonic kidney cells (HEK293T). So, increase in luciferase activity can be used to identify the compounds that cause genetic stress. In addition to genotoxicity, these cells were also used to test for cytotoxicity by measuring the protease activity within live cells.
Tox21 Assay Protocol Summary:
For cytotoxicity screening, 2,000 cells in 5 uL/well were dispensed into white, solid-bottom 1536-well plates using a Multidrop Combi (Thermo Scientific) dispenser. Following transfer of 23 nL compound or DMSO vehicle by a pin tool, the plates were incubated 15.5 hr at 37C and 5% CO2. 1 ul CellTiter-Fluor reagent (Promega, Madison, WI) was then added to each plate and following 30 min incubation at 37C, fluorescence intensity was quantified on a ViewLux CCD-based plate reader.

Assay [8] can be described thus: qHTS assay to identify small molecule antagonists of the thyroid receptor (TR) signaling pathway (AID 743065). Note: nearly all actives have a fitted effect of over 55% in size. The essentials: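 GH3.TRE-Luc rat pituitary cells carrying two TR response elements driving luciferase were plated for 4 h, given compound plus 1 nM T3 (final), and incubated 23.5 h at 37 C. ONE-Glo luminescence measured reporter inhibition; CellTiter-Fluor fluorescence tracked cytotoxicity.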
% is set by controls: 0 for no effect and ±100 for the full control effect; potency is the fitted concentration of half-maximal effect.

Consider `CN(C)CCOCCN(C)C`, for which the Potency result in assay [1] was “inactive [sample A] and active: 43.6 µM [sample B]”. Turning to `C=C(C)C(=O)O[C@H]1C[C@@H]2CC[C@@]1(C)C2(C)C`, the Potency entry in assay [2] was “active: 8.58 µM [sample A] and inactive [sample B]”; in assay [3], “active: 5.42 µM [sample A] and inactive [sample B]”; in assay [4], “active: 9.63 µM [sample A] and inactive [sample B]”; in assay [5], “active: 4.3 µM [sample A] and inactive [sample B]”. Turning to `CCCCCCCCCCCCOCCO`, the Potency result in assay [5] is “active: 54.5 µM [sample A] and inactive [sample B]”. As for `CCCCCCCCCCCCCCCO`, the Potency result in assay [6] is “active: 24.8 µM [sample A] and inactive [sample B]”. On to `COCCCOc1ccnc(CS(=O)c2nc3ccccc3[nH]2)c1C` (stereo not given), for which the Potency entry in assay [7] is “inactive [sample A] and active: 30.5 µM [sample B]”. Still for that read-out and setting: next, `CCCSc1ccc2nc(NC(=O)OC)[nH]c2c1`: “inactive [sample A] and active: 486 nM [sample B]”. For the molecule `CCN(CC)CCCC(C)Nc1ccnc2cc(Cl)ccc12` (stereo not given), the activity change, negative = cytotoxicity result in assay [3] was “inactive: -17.1% [at 8.39 µM] [sample A] and inactive: -21.1% [at 19 µM] [sample B]”; in assay [4], “inactive: -14.6% [at 8.39 µM] [sample A] and inactive: -20.6% [at 19 µM] [sample B]”. Further, in assay [1], the activity change entry is “inactive: -7.89% [at 6.97 µM, stronger effect = higher value] [sample A]; also recorded: inactive: 2.16% [at 15.8 µM, stronger effect = higher value] [sample B]”. In assay [6], the viability change, negative = cytotoxic entry was “inactive: -12.9% [at 6.97 µM] [sample A] and inactive: -0.916% [at 15.8 µM] [sample B]”. As for `CCc1ccc(CCOc2ccc(CC3SC(=O)NC3=O)cc2)nc1` (stereo not given), the Potency result in assay [8] is “inactive [sample A] and active: 61.1 µM [sample B]”. Regarding `CN(C)CCC(c1ccc(Cl)cc1)c1ccccn1` (stereo not given), in assay [3], the Potency entry is “active: 54.6 µM [sample A] and inactive [sample B]”.

The values are drawn from PubChem BioAssay (Tox21).
